In the supplement of paper PMC4604168 (melanoma cell lines):
The other results are listed elsewhere or left out. Repeats are few or missing, and single values can be far off.

What follows are molecules tested on IPC-298 (assay: cell count relative to DMSO control; melanoma cells; higher = more viable cells). Settings: library dose: standard library concentration; 72 h.
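Also: cells treated in 1,536-well plates, then fixed and DAPI-stained, with nuclei counted from automated high-throughput microscope images.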

| Compound | cell count [%] |
| --- | --- |
| NC(=O)c1ccc(N(C(N)=O)c2c(F)cccc2F)nc1-c1ccc(F)cc1F + O=C1NC(=O)/C(=C/c2ccc(-c3ccc(F)cc3O)o2)S1 [AS252424] (first compound 2 µM, partner dose 5 µM) | 87.3 |
| NC(=O)c1ccc(N(C(N)=O)c2c(F)cccc2F)nc1-c1ccc(F)cc1F + Cc1nc(Nc2ncc(C(=O)Nc3c(C)cccc3Cl)s2)cc(N2CCN(CCO)CC2)n1 [dasatanib] (first compound 2 µM, partner dose 0.02 µM) | 99.4 |
| CC(C)(C)c1cnc(CSc2cnc(NC(=O)C3CCNCC3)s2)o1 + COc1cc2c(Oc3ccc4[nH]c(C)cc4c3F)ncnc2cc1OCCCN1CCCC1 [cediranib] (first compound 0.05 µM, partner dose 2 µM) | 118 |
| Cc1ccc(NC(=O)c2cccc(N(C)C)c2)cc1NC(=O)c1ccc(O)cc1 + CO[C@@H]1[C@H](N(C)C(=O)c2ccccc2)C[C@H]2O[C@]1(C)n1c3ccccc3c3c4c(c5c6ccccc6n2c5c31)C(=O)NC4 [Midostaurin] (first compound 10 µM, partner dose 0.4 µM) | 63.6 |
| CCCCCCCCc1ccc(CCC(N)(CO)CO)cc1 [fingolimod] + Oc1nc(-c2ccc(C(F)(F)F)cc2)nc2c1CSCC2 [XAV939] (first compound 10 µM, partner dose 10 µM) | 76.7 |
| Cc1ccc(NC(=O)c2cccc(N(C)C)c2)cc1NC(=O)c1ccc(O)cc1 + CN(NC(=O)CC(=O)NN(C)C(=S)c1ccccc1)C(=S)c1ccccc1 [STA4783] (first compound 10 µM, partner dose 0.03 µM) | 47.9 |

The molecules below were run on IST-MEL1 in the same assay as above. Settings: library dose: standard library concentration; 72 h.

| Compound | cell count [%] |
| --- | --- |
| CCCCCCCCc1ccc(CCC(N)(CO)CO)cc1 [fingolimod] + Cc1cc([N+](=O)[O-])ccc1NS(=O)(=O)c1cc(Cl)ccc1Cl [FH535] (first compound 10 µM, partner dose 5 µM) | 17.6 |
| CN(NC(=O)CC(=O)NN(C)C(=S)c1ccccc1)C(=S)c1ccccc1 + COc1cc2c(Oc3ccc4[nH]c(C)cc4c3F)ncnc2cc1OCCCN1CCCC1 [cediranib] (first compound 0.03 µM, partner dose 2 µM) | 30.3 |
| CCc1ccc(CCOc2ccc(CC3SC(=O)NC3=O)cc2)nc1 (stereo not given) [pioglitazone] + O=C1NC(=O)/C(=C/c2ccc(-c3ccc(F)cc3O)o2)S1 [AS252424] (first compound 10 µM, partner dose 5 µM) | 105 |
| Cc1ccc(NC(=O)c2cccc(N(C)C)c2)cc1NC(=O)c1ccc(O)cc1 + CCCCCCCCCCCC1=C(O)C(=O)C=C(O)C1=O [Embelin] (first compound 10 µM, partner dose 6 µM) | 59 |
| Cc1ccc(NC(=O)c2cccc(N(C)C)c2)cc1NC(=O)c1ccc(O)cc1 + COc1ccc2c(c1)CCC1C2CCC2(C)C(NCCCCCCN3C(=O)C=CC3=O)CCC12 [U73122] (first compound 10 µM, partner dose 2 µM) | 102 |
| CC(C)(C)c1cnc(CSc2cnc(NC(=O)C3CCNCC3)s2)o1 + CN(NC(=O)CC(=O)NN(C)C(=S)c1ccccc1)C(=S)c1ccccc1 [STA4783] (first compound 0.05 µM, partner dose 0.03 µM) | 29.3 |
| CN(NC(=O)CC(=O)NN(C)C(=S)c1ccccc1)C(=S)c1ccccc1 + COc1cc(N2CCC(N3CCN(C)CC3)CC2)ccc1Nc1ncc(Cl)c(Nc2ccccc2S(=O)(=O)C(C)C)n1 [NVP-TAE684] (first compound 0.03 µM, partner dose 0.4 µM) | 39.1 |
| CN(NC(=O)CC(=O)NN(C)C(=S)c1ccccc1)C(=S)c1ccccc1 + CCCCCCCCCCCC1=C(O)C(=O)C=C(O)C1=O [Embelin] (first compound 0.03 µM, partner dose 6 µM) | 30.3 |
| CC(C)(C)c1cnc(CSc2cnc(NC(=O)C3CCNCC3)s2)o1 + O=C(Nc1ccccc1)c1cc([N+](=O)[O-])ccc1Cl [GW9662] (first compound 0.05 µM, partner dose 10 µM) | 101 |
| CCCCCCCCc1ccc(CCC(N)(CO)CO)cc1 [fingolimod] + CCCS(=O)(=O)Nc1ccc(F)c(C(=O)c2c[nH]c3ncc(Cl)cc23)c1F [PLX4720] (first compound 10 µM, partner dose 0.4 µM) | 4.49 |
| CCCCCCCCc1ccc(CCC(N)(CO)CO)cc1 [fingolimod] + O=C(O)C(=O)Nc1sc2c(c1C(=O)O)CCNC2 [TCS401] (first compound 10 µM, partner dose 8.33333 µM) | 10.9 |
| CCc1ccc(CCOc2ccc(CC3SC(=O)NC3=O)cc2)nc1 (stereo not given) [pioglitazone] + COC(=O)c1sccc1S(=O)(=O)Nc1ccc(Nc2ccccc2)cc1OC [GSK0660] (first compound 10 µM, partner dose 5 µM) | 98.5 |
| COc1cc2c(Oc3ccc4[nH]c(C)cc4c3F)ncnc2cc1OCCCN1CCCC1 [cediranib] + COc1cc(N2CCC(N3CCN(C)CC3)CC2)ccc1Nc1ncc(Cl)c(Nc2ccccc2S(=O)(=O)C(C)C)n1 [NVP-TAE684] (first compound 2 µM, partner dose 0.4 µM) | 97.2 |
| CC(C)(C)c1cnc(CSc2cnc(NC(=O)C3CCNCC3)s2)o1 + CCCCCCCCCCCC1=C(O)C(=O)C=C(O)C1=O [Embelin] (first compound 0.05 µM, partner dose 6 µM) | 65.1 |
| CCCCCCCCc1ccc(CCC(N)(CO)CO)cc1 [fingolimod] + CN1CCN(c2ccc3nc(-c4c(N)c5c(F)cccc5[nH]c4=O)[nH]c3c2)CC1 [Dovitinib] (first compound 10 µM, partner dose 0.5 µM) | 5 |
| CCCCCCCCc1ccc(CCC(N)(CO)CO)cc1 [fingolimod] + COc1ccc2c(c1)CCC1C2CCC2(C)C(NCCCCCCN3C(=O)C=CC3=O)CCC12 [U73122] (first compound 10 µM, partner dose 2 µM) | 20.3 |
| Cc1ccc(NC(=O)c2cccc(N(C)C)c2)cc1NC(=O)c1ccc(O)cc1 + Cc1cc(N2CCOCC2)cc2[nH]c(-c3c(NC[C@@H](O)c4cccc(Cl)c4)cc[nH]c3=O)nc12 [BMS536924] (first compound 10 µM, partner dose 1 µM) | 87.9 |
| NC(=O)c1ccc(N(C(N)=O)c2c(F)cccc2F)nc1-c1ccc(F)cc1F + CCCCCCCCCCCC1=C(O)C(=O)C=C(O)C1=O [Embelin] (first compound 2 µM, partner dose 6 µM) | 68.9 |
| NC(=O)c1ccc(N(C(N)=O)c2c(F)cccc2F)nc1-c1ccc(F)cc1F + Cn1nnc2c(C(N)=O)ncn2c1=O [temozolomide] (first compound 2 µM, partner dose 10 µM) | 74 |
| CN(NC(=O)CC(=O)NN(C)C(=S)c1ccccc1)C(=S)c1ccccc1 + COc1ccc2c(c1)CCC1C2CCC2(C)C(NCCCCCCN3C(=O)C=CC3=O)CCC12 [U73122] (first compound 0.03 µM, partner dose 2 µM) | 104 |
| NC(=O)c1ccc(N(C(N)=O)c2c(F)cccc2F)nc1-c1ccc(F)cc1F + CN(NC(=O)CC(=O)NN(C)C(=S)c1ccccc1)C(=S)c1ccccc1 [STA4783] (first compound 2 µM, partner dose 0.03 µM) | 24.7 |
| Cc1ccc(NC(=O)c2cccc(N(C)C)c2)cc1NC(=O)c1ccc(O)cc1 + O=C(Nc1cccc(Cl)c1)Nc1ncc(CCNc2ncnc3ccsc23)s1 [SNS314] (first compound 10 µM, partner dose 0.004 µM) | 57.4 |
| CCCCCCCCc1ccc(CCC(N)(CO)CO)cc1 [fingolimod] + COC(=O)c1sccc1S(=O)(=O)Nc1ccc(Nc2ccccc2)cc1OC [GSK0660] (first compound 10 µM, partner dose 5 µM) | 8.8 |
| CCCCCCCCc1ccc(CCC(N)(CO)CO)cc1 [fingolimod] + CCCCCCCCCCCC1=C(O)C(=O)C=C(O)C1=O [Embelin] (first compound 10 µM, partner dose 6 µM) | 25.4 |
| NC(=O)c1ccc(N(C(N)=O)c2c(F)cccc2F)nc1-c1ccc(F)cc1F + CN1CCN(c2ccc3nc(-c4c(N)c5c(F)cccc5[nH]c4=O)[nH]c3c2)CC1 [Dovitinib] (first compound 2 µM, partner dose 0.5 µM) | 74.8 |
| CC(C)(C)c1cnc(CSc2cnc(NC(=O)C3CCNCC3)s2)o1 + NCC(=O)Nc1ccc(-n2nc(C(F)(F)F)cc2-c2ccc3c(ccc4ccccc43)c2)cc1 [OSU03012] (first compound 0.05 µM, partner dose 5 µM) | 81.3 |
| CCCCCCCCc1ccc(CCC(N)(CO)CO)cc1 [fingolimod] + NC1(c2ccc(-c3nc4ccn5c(=O)[nH]nc5c4cc3-c3ccccc3)cc2)CCC1 [MK2206] (first compound 10 µM, partner dose 2 µM) | 7.3 |
| CC(C)(C)c1cnc(CSc2cnc(NC(=O)C3CCNCC3)s2)o1 + Oc1cc(-c2nc(-c3ccccc3)[nH]c2-c2ccncc2)ccc1Cl [L779450] (first compound 0.05 µM, partner dose 1 µM) | 104 |
| CCc1ccc(CCOc2ccc(CC3SC(=O)NC3=O)cc2)nc1 (stereo not given) [pioglitazone] + Oc1nc(-c2ccc(C(F)(F)F)cc2)nc2c1CSCC2 [XAV939] (first compound 10 µM, partner dose 10 µM) | 95 |
